In all, about 48,000 compounds went through this assay and about 1,200 (2.5%) were called active. Not shown: some 2% with an inconclusive outcome.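 How the source made its calls: active means activation of at least 60% and not above a set upper limit (about 1 call in 100 departs from these limits); inconclusive means activation of 40% to 60%, or above that upper limit; inactive means activation under 40%.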 The list shows a part of the results.

For this assay, the target named is Probable G-protein coupled receptor 32 (Homo sapiens) (UniProt O75388). As to the kind of experiment: qHTS for Agonists of Human Resolvin D1 Receptor DRV1. Further: 0% is about no effect. Conditions: CHO-K1 GPR32 beta-arrestin PathHunter luminescence, 90 min; at 76.9 µM; active compounds read high; zero percent set by DMSO-only wells. In a few lines: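 Luminescent readout of beta-Gal complementation quantifies ligand-induced beta-arrestin association with GPR32 in CHO-K1 cells; 90 min compound incubation at 37 °C, detection 1 h at room temperature.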
UniProt O75388, sequence (O75388 whole entry, looked up): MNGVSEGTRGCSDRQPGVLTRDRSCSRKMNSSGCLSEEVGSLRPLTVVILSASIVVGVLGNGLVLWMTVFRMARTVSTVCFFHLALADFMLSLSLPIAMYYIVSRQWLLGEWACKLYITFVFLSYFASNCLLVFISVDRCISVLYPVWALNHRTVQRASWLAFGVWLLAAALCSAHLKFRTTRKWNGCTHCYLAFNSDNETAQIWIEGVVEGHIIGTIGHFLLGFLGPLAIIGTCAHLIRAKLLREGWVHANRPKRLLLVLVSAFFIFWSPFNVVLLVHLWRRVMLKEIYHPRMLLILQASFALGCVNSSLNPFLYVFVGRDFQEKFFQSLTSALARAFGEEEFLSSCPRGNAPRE
`CCOc1ccccc1NC(=O)CSc1nnc(CC)c(CC)n1`: the activation is inactive: -15.4%. Then `CCCCC(CC)CNC(=O)c1ccc(Cn2c(=O)[nH]c3cc(OC)c(OC)cc3c2=O)cc1` (stereo not drawn), with inactive: -6.45%; and `CCCOc1ccc(C(=O)Nc2cc(-c3nc4ccccc4[nH]3)ccc2C)cc1`, with inactive: 46%.

As to `COc1cccc(CN2CCCN(Cc3ccc(F)cc3)S2(=O)=O)c1`, the activation was inactive: -9.86%. For the molecule `COc1cccc(CNC(=O)c2cc3cc(C)ccc3n2C)c1`, the activation was inactive: 7.2%.

Take `Cc1ccc(O)c(NC(=O)C2=CC(c3cccs3)=NS(=O)(=O)N2C)c1`: the activation was inactive: 9.28%. In the case of `COc1ccc(C)cc1NC(=O)C1CCN(S(=O)(=O)Cc2ccccc2)CC1`, the activation is inactive: 11.2%.

Turning to `Cc1ccccc1OCC(=O)Nc1nnc(SCc2cc(=O)n3cccc(C)c3n2)s1`, the activation was inactive: -4.95%. Consider `COc1cc(N)c(Cl)cc1C(=O)OCCN1CCCCC1`, for which the activation is inactive: -4.15%.

Turning to `CCOc1ccccc1NC(=O)Cn1c(=O)n(-c2ccc(Cl)cc2)c(=O)c2oc3ccccc3c21`, the activation is inactive: -13%. In the case of `Cn1cc(S(=O)(=O)N2CCc3ccccc32)cc1C(=O)Nc1ccc(C(F)(F)F)cc1`, the activation was inactive: -10.1%. For the molecule `CC1Cc2cc(S(=O)(=O)CCC(=O)Nc3ccc(F)cc3Cl)ccc2N1C(=O)C1CC1` (stereo not drawn), the activation is inactive: 2.23%.

Regarding `Cc1c(NC(=O)C(C)(C)C)cccc1-c1nc2ccccc2s1`, the activation was inactive: 3.38%. On to `Cc1ccc(-n2nc(C(=O)N3CCN(c4cc(C)ccc4C)CC3)c3c4ccccc4n(C)c3c2=O)cc1`, for which the activation was inactive: 41%. As for `CCc1ccc(NC(=O)CSc2nc3c([nH]c4ccccc43)c(=O)n2C)cc1`, the activation is inactive: -13.4%. For `Cn1c(=O)n(C)c2cc(N3CCCCC3)c(NC(=O)Nc3ccc(Br)cc3)cc21`, the activation was inactive: 34.2%. In the case of `CCN(CC)c1ccc(NC(=O)Cn2cc3c(n2)CCCC3)c(C)c1` it was inactive: -4.77%; in that of `Cc1ccc(CNC(=O)C2CCCN(c3nn4cc(-c5ccc(C)cc5)nc4s3)C2)cc1` (stereo not drawn), inactive: -15%; in that of `Cc1ccc(-n2c(=O)c3ccc(C(=O)NCc4ccccc4Cl)cc3n(Cc3cccc(F)c3)c2=O)cc1`, inactive: -12.9%. `CCOC(=O)c1cc2c(=O)n3ccccc3nc2n(CC2CCCO2)c1=NC(=O)c1ccccc1OCC` (stereo not drawn): the activation was inactive: -17.7%. For the molecule `COc1ccc(N2CCN(C(CNC(=O)c3c(F)cccc3F)c3ccc4c(c3)OCO4)CC2)cc1` (stereo not drawn), the activation was inactive: -33.5%. Then `Cc1oc2ccc(O)c(CN3CCN(C)CC3)c2c1C(=O)Nc1cccc(C(F)(F)F)c1`, with inactive: 17.9%; and `COc1cccc(CNC(=O)C2(c3cccs3)CCOCC2)c1`, with inactive: 23.5%; and `O=C(CSc1nc2c([nH]c3ccccc32)c(=O)n1-c1cccc(Cl)c1)N1CCOCC1`, with inactive: 26.5%.

For the molecule `CCCCCC(=O)Nc1ccc(NC(=O)c2cc3ccccc3o2)c(OC)c1`, the activation is active: 121%. Turning to `CC(C)c1nc2n(n1)C1(CCCCC1)[C@@H]1CCCC[C@@H]1N2`, the activation is inactive: -2.05%. Then `CCOC(=O)c1c(NC(=O)CSc2cn(CCNC(=O)c3ccccc3OC)c3ccccc23)sc2c1CCC2`, with inactive: -16.2%; and `COc1ccc(-c2nc3c4ccccc4n(CC(=O)N4CCN(c5ccc(F)cc5)CC4)c(=O)n3n2)cc1`, with inactive: 10.2%; and `CCOc1ccc(-n2c(CC)nc3c(cnn3-c3ccc(Cl)cc3)c2=O)cc1`, with inactive: 5.01%.

Take `O=C(Cn1c(=O)c2ccccc2n(CC(=O)Nc2ccc(F)cc2)c1=O)NCCc1ccccc1`: the activation was inactive: 1.86%. Then `Cc1cccc(Cn2c(C)c(CNC3CCCCCC3)c(C(=O)O)c2C)c1`, with inactive: -6.39%; and `COc1c(Cl)cc(C(=O)N(Cc2ccc(C)o2)C2CCS(=O)(=O)C2)cc1Cl` (stereo not drawn), with inactive: -1.77%; and `Cc1oc(-c2cccc(Cl)c2)nc1CN1CCCC(C(=O)N2CCN(c3ccc(F)cc3)CC2)C1` (stereo not drawn), with inactive: 44.9%. On to `COc1cccc(C(=O)c2cn(CC(=O)NCCc3ccccc3)c3nc(C)ccc3c2=O)c1`, for which the activation was inactive: -11.1%. Consider `CCOC(=O)N1CCc2c(sc3c2C(=O)NC(c2cc(OC)c(O)c(OC)c2)N3)C1` (stereo not drawn), for which the activation was inactive: -1.55%. For the molecule `CCCN(CCC)CCCNC(=O)Cn1cc2c(n1)-c1c(oc(C(=O)N3CCCC3)c1C)CC2`, the activation is inactive: 4.44%. Then `CCCNC(=O)C(CC)n1nc(CC)n2c(cc3oc(C)cc32)c1=O` (stereo not drawn), with inactive: 2.15%; and `CCOC(=O)c1cc2c(=O)n3ccccc3nc2n(CC2CCCO2)c1=NC(=O)c1ccc(OC)cc1OC` (stereo not drawn), with inactive: -8.54%; and `CCOc1ccc(NC(=O)NCc2ccc3c(c2)CCN3C(C)=O)cc1`, with inactive: 16.5%. Regarding `Cc1cc(C)n(-c2nc3ccccc3nc2N2CCN(c3cccc(C)c3C)CC2)n1`, the activation was inactive: -3.02%.

Take `Cc1ccc(C(=O)c2oc3ccccc3c2NC(=O)COc2ccccc2Cl)cc1`: the activation is inactive: 23.1%. As for `COc1cccc(NC(=O)Cn2c(=O)n(CCc3ccccc3)c(=O)c3c4c(sc32)CN(C(C)=O)CC4)c1`, the activation was inactive: -5.76%. For the molecule `COc1cccc(CNC(=O)CSC2=Nc3ccccc3C3=NC(C(C)C)C(=O)N23)c1` (stereo not drawn), the activation was inactive: -4.82%. In the case of `Cc1ccccc1NC(=O)CCC(=O)N1CC(C)Sc2ccccc21` (stereo not drawn) it was inactive: -25%; in that of `Cc1cccc(C)c1NS(=O)(=O)c1ccc(NS(=O)(=O)c2ccc3c(c2)OCCO3)cc1`, inactive: 3.18%. Consider `O=C(Nc1noc2ccccc12)c1ccc(F)cc1`, for which the activation is inactive: -23.8%. Regarding `CCOC(=O)c1ccc(NC(=O)C2(S(=O)(=O)c3ccc(Cl)cc3)CC2)cc1`, the activation was inactive: -9.83%. As for `COc1ccc(CNC(=O)c2cc(=O)c3cc(C)ccc3o2)cc1`, the activation is inactive: 30.7%. Turning to `C=Cc1ccc(COc2ccc3oc(-c4ccccc4)c(C(=O)OCC)c3c2)cc1`, the activation was inactive: -1.51%. Then `COc1ccc(C(=O)N(c2ccc(OC)cc2)S(=O)(=O)c2ccc3c(c2)n(C)c(=O)n3C)cc1`, with inactive: -26.7%; and `Cc1cccc(N2CCN(C(=O)CCS(=O)(=O)c3ccc4c(c3)oc(=O)n4C)CC2)c1C`, with inactive: -2.96%. In the case of `CCOC(=O)COc1ccc([N+](=O)[O-])cc1-c1ccnc2cc(-c3ccc(C)cc3)nn12`, the activation is inactive: -13%. As to `Cc1ccc(-c2nnc(Nc3ccccc3)c3ccccc23)cc1S(=O)(=O)NCc1nc2ccccc2[nH]1`, the activation is inactive: 19.3%. Then `Cc1ccc(C)c(N2CCN(CCCNC(=O)c3ccc4nc(N5CCCCC5)sc4c3)CC2)c1`, with inactive: 25.2%; and `Cc1c(Cl)cccc1NC(=O)Cn1nnc2sc3c(c2c1=O)CCCC3`, with inactive: -4.88%; and `O=C(c1cc2ccc3cccnc3c2[nH]1)N1CCN(c2ccc(Cl)cc2)CC1`, with inactive: -28%. Then `COc1ccccc1C(=O)Nc1cccc(C(=O)OCc2cc(=O)n3nc(C)sc3n2)c1`, with inactive: -12.3%. In the case of `NC(=O)CSc1ncc2c(n1)-c1ccccc1N(Cc1ccc(Cl)cc1)S2(=O)=O` it was inactive: -11.6%; in that of `O=C(CN1C(=O)C2(SCC(=O)N2c2ccccc2)c2ccccc21)NCc1ccccc1` (stereo not drawn), inactive: -1.85%; in that of `CCCCCC(O)CCCC(=O)O` (stereo not drawn), inactive: 5.26%. As to `O=C(Nc1cccc(Cl)c1Cl)c1cc(S(=O)(=O)NCCc2ccccc2)ccc1F`, the activation is inactive: -23.6%. `Cc1cc(Nc2ccc(Cl)cc2C)nc(-n2nc(C)cc2C)n1`: the activation is inactive: -9.87%. Turning to `CC(C)c1noc(-c2ccccc2OCC(=O)Nc2ccccc2[N+](=O)[O-])n1`, the activation is inactive: -11.6%. Turning to `Cc1nn(CC(=O)Nc2cc(F)ccc2F)c(=O)c2cccn12`, the activation is inactive: -14.4%. For the molecule `CC(C)(C)c1ccccc1NC(=O)CSc1nc(-c2cccs2)cc(C(F)(F)F)n1`, the activation is inactive: -7.59%. For the molecule `O=C(NCc1ccc2c(c1)CCN2C(=O)c1ccc(F)cc1)c1ccco1`, the activation was inactive: -33.5%. As for `CCOc1ccc(C(=O)Nc2ccc(-n3nncc3-c3ccccc3)cc2)cc1OCC`, the activation was inactive: -19.5%. Regarding `CCC(=O)Nc1ccc2nc3c(=O)n(C)c(=O)n(C)c3nc2c1`, the activation was inactive: 10.1%.

Regarding `Cc1c(CNC2CCCCC2)c(C(=O)O)c(C)n1Cc1ccc(F)cc1`, the activation is inactive: 9.37%. Consider `CCC(NC(=O)Nc1cc(OC)ccc1OC)c1c(-n2cccc2)sc2c1CCN(CC)C2` (stereo not drawn), for which the activation is inactive: -30.2%. For the molecule `CCN(C(=O)c1cc2c(=O)n3cccc(C)c3nc2s1)c1ccc(C)c(C)c1`, the activation is inactive: -2.79%. Turning to `COc1ccccc1CNC(=O)CCCn1nc(C)c2sc3ccccc3c2c1=O`, the activation is inactive: -8.46%.

In the case of `COc1cccc(NC(=O)C2CCCN(c3nnc(-n4c(C)ccc4C)s3)C2)c1` (stereo not drawn), the activation is inactive: -15.6%.

As for `Cc1ccc(OCC(=O)OCc2cc(=O)n3nc(-c4cccs4)sc3n2)cc1`, the activation was inactive: 16.4%.

`COCCCn1c(=N)c(S(=O)(=O)c2ccccc2)cc2c(=O)n3cc(C)ccc3nc21`: the activation was inactive: 35.3%.

Take `CC(C)(C)OC(=O)N1CCC(c2c(C(=O)N3CCN(c4ccc(Cl)cc4)CC3)cnn2-c2ccc(F)cc2F)CC1`: the activation is inactive: -13.3%. `Cc1ccccc1OCC(=O)Nc1ccc2nc(SCC(=O)N(C)c3ccccc3)sc2c1`: the activation is inactive: -0.907%. `Cn1cc(S(=O)(=O)c2ccc(Cl)cc2)c(=O)c2cc(F)c(N3CCCC3)cc21`: the activation was inactive: 1.55%.

Turning to `COc1ccc(Cl)cc1NC(=O)c1cc2ccc3ccc(C)[nH]c3c2n1`, the activation is inactive: -14.2%.

On to `COc1ccc(-c2cc(C(=O)Nc3ccc4c(c3)OCO4)no2)cc1OC`, for which the activation is inactive: -1.31%. In the case of `COc1cc(NC(=O)c2cc(-c3cccs3)on2)c(OC)cc1Cl`, the activation is inactive: -13.3%.

Turning to `COc1ccc(CNc2nc(-c3ccco3)nn2C(=O)c2ccccc2Cl)cc1`, the activation was inactive: -33.3%. For `O=C(c1cc(-c2ccc(Cl)cc2)on1)N(Cc1cccc(F)c1)Cc1ccco1`, the activation is inactive: 0.056%.

The values above are taken from PubChem BioAssay AID1346428 (National Center for Advancing Translational Sciences (NCATS), 2018).
